Assay results reported in the supplement of paper PMC7826260.
The list shows a part of the results. One pool of 16,384 single-stranded DNAs met each Rep nickase domain in vitro (3 µM enzyme, 1 h, 37 °C); shown is the middle of each 90-letter strand. Uncut reads are compared with the no-enzyme pool on a log2 scale; strong cutting gives strongly negative numbers. There is no active / inactive call. Because reads are shares of a total, they shift together; uncut strands gain when others are lost, and binding without cutting may add a little.

tested on: T1, Rep nickase domain of Muscovy duck circovirus; experiment: uncleaved DNA left, log2 of reads against the no-enzyme library (log2 ratio); higher = less cleavage (more negative = more Rep cleavage of the k-mer); sequences stand for … in CTCGTCCG…ACCGGAGA
T1 sequence (residues 1-111, tag not shown): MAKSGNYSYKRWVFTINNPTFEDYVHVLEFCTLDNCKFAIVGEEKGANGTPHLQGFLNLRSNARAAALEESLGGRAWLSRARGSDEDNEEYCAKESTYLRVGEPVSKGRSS
Method: (§1)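 A pool of 90-nt single-stranded DNAs with seven random bases just before the constant AC of the nick site (name = the seven bases) was cut by 3 µM recombinant His6-SUMO-tagged Rep nickase domain (300 nM DNA, 50 mM HEPES pH 8.0, 50 mM NaCl, 1 mM MnCl2, 1 h, 37 °C, three replicates). Uncut DNA was amplified and sequenced.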

Sequence | uncleaved DNA left (log2)
ATATCCG | -0.0757
GATGGCA | 0.0353
GATTCGC | 0.0316
ACGTAGT | -0.463
AGCCCAA | -0.0401
CGCATGA | 0.0753
CCAAGGT | 0.153
GAGCATT | 0.12
AGCGGCT | -0.0199
GTAGCGG | -0.0264
TAAACAC | -0.0281
CCGGATG | -0.111
TGGGATT | -0.0782
CAAATGT | -0.0901
TCTGGTT | 0.0312
ACGATAG | 0.0317
TGCCACG | 0.139
GTACGCA | 0.0408
AGTCAAA | 0.124
TCGAAGA | 0.0683

Sequence | uncleaved DNA left (log2)
TAGGTGC | -0.183
TTTTCAC | 0.0396
GATAAAT | 0.0836
AGCCACG | 0.00381
GTCACCT | 0.0528
ATGAAGC | 0.0258
TAGCACC | 0.112
AGCAGAA | 0.0534
GTAGATT | 0.0565
CCAGTTT | -0.0782
GTGTATA | -0.0684
GACGGGG | 0.135
AATGCCG | -0.0221
CTGATCG | 0.0283
TAAGCTT | -0.134
ATTGTGC | 0.0119
GCATTAG | -0.0363
AGGGAGT | -0.00337
GGTACAG | 0.0967
CGCTGGT | -0.132

tested on: T2, Rep nickase domain of banana bunchy top virus; experiment: as above
T2 sequence (residues 1-94, tag not shown): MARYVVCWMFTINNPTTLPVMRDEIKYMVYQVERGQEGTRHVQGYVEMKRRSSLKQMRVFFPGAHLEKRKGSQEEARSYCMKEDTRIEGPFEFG
Method: as §1

Sequence | uncleaved DNA left (log2)
ATATCCG | -0.104
GATGGCA | -0.087
GATTCGC | -0.127
ACGTAGT | -0.0283
AGCCCAA | -0.0694
CGCATGA | -0.0223
CCAAGGT | 0.0268
GAGCATT | 0.119
AGCGGCT | 0.0447
GTAGCGG | 0.00421
TAAACAC | 0.0278
CCGGATG | 0.0884
TGGGATT | -0.00426
CAAATGT | -0.149
TCTGGTT | -0.16
ACGATAG | 0.162
TGCCACG | -0.0157
GTACGCA | -0.00565
AGTCAAA | 0.0901
TCGAAGA | -0.134

Sequence | uncleaved DNA left (log2)
TAGGTGC | -0.198
TTTTCAC | 0.00259
GATAAAT | 0.056
AGCCACG | 0.0086
GTCACCT | 0.116
ATGAAGC | 0.0689
TAGCACC | 0.0295
AGCAGAA | 0.0926
GTAGATT | -0.0396
CCAGTTT | -0.0555
GTGTATA | 0.0899
GACGGGG | 0.106
AATGCCG | -0.05
CTGATCG | -0.158
TAAGCTT | -0.149
ATTGTGC | 0.00759
GCATTAG | -0.121
AGGGAGT | 0.0614
GGTACAG | 0.121
CGCTGGT | 0.00878

tested on: T3, Rep nickase domain of cabbage leaf curl virus; experiment: as above
T3 sequence (residues 1-116, tag not shown): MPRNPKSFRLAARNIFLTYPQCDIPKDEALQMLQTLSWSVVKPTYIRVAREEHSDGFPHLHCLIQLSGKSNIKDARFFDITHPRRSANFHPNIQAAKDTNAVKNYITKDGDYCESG
Method: as §1

Sequence | uncleaved DNA left (log2)
ATATCCG | -0.797
GATGGCA | 0.23
GATTCGC | -0.346
ACGTAGT | -0.14
AGCCCAA | 0.504
CGCATGA | 0.0686
CCAAGGT | 0.427
GAGCATT | 0.776
AGCGGCT | 0.126
GTAGCGG | 0.18
TAAACAC | -1.42
CCGGATG | 0.0688
TGGGATT | 0.652
CAAATGT | -1.25
TCTGGTT | 0.0633
ACGATAG | -0.619
TGCCACG | -0.595
GTACGCA | 0.0885
AGTCAAA | 0.189
TCGAAGA | 0.0942

Sequence | uncleaved DNA left (log2)
TAGGTGC | -0.432
TTTTCAC | 0.111
GATAAAT | 0.386
AGCCACG | -0.615
GTCACCT | 0.175
ATGAAGC | -0.246
TAGCACC | 0.097
AGCAGAA | 0.105
GTAGATT | 0.309
CCAGTTT | -0.278
GTGTATA | 0.319
GACGGGG | 0.74
AATGCCG | -0.862
CTGATCG | -0.294
TAAGCTT | -3.45
ATTGTGC | -0.893
GCATTAG | -0.946
AGGGAGT | 0.272
GGTACAG | 0.837
CGCTGGT | 0.015

tested on: T4, Rep nickase domain of chickpea chlorotic dwarf virus; experiment: as above
T4 sequence (residues 1-124, tag not shown): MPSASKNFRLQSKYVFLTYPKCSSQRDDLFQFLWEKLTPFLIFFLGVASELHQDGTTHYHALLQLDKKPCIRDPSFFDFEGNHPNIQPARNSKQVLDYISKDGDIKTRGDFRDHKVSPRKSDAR
Method: as §1

Sequence | uncleaved DNA left (log2)
ATATCCG | 0.0177
GATGGCA | 0.688
GATTCGC | -0.367
ACGTAGT | -0.454
AGCCCAA | 1.1
CGCATGA | 0.235
CCAAGGT | 1.1
GAGCATT | 1.46
AGCGGCT | 0.553
GTAGCGG | 0.858
TAAACAC | -2.63
CCGGATG | 0.378
TGGGATT | 1.72
CAAATGT | -2.49
TCTGGTT | -0.308
ACGATAG | -0.308
TGCCACG | -0.702
GTACGCA | 0.447
AGTCAAA | 0.52
TCGAAGA | 0.216

Sequence | uncleaved DNA left (log2)
TAGGTGC | -0.654
TTTTCAC | -0.112
GATAAAT | 0.608
AGCCACG | -0.524
GTCACCT | 0.341
ATGAAGC | -0.421
TAGCACC | -0.323
AGCAGAA | 0.394
GTAGATT | 0.622
CCAGTTT | -1.94
GTGTATA | 0.893
GACGGGG | 1.05
AATGCCG | -0.227
CTGATCG | -0.208
TAAGCTT | -2.38
ATTGTGC | -0.264
GCATTAG | -0.379
AGGGAGT | 1.38
GGTACAG | 2.03
CGCTGGT | 0.192

tested on: T5, Rep nickase domain of faba bean necrotic yellows virus; experiment: as above
T5 sequence (residues 1-98, tag not shown): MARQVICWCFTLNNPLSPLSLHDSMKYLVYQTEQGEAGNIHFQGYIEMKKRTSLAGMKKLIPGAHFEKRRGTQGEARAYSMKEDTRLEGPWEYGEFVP
Method: as §1

Sequence | uncleaved DNA left (log2)
ATATCCG | -0.0538
GATGGCA | -0.0183
GATTCGC | -0.12
ACGTAGT | -0.165
AGCCCAA | -0.0321
CGCATGA | -0.0183
CCAAGGT | 0.134
GAGCATT | -0.0604
AGCGGCT | -0.0249
GTAGCGG | -0.161
TAAACAC | 0.0277
CCGGATG | 0.179
TGGGATT | -0.00294
CAAATGT | -0.0497
TCTGGTT | -0.218
ACGATAG | -0.0185
TGCCACG | 0.116
GTACGCA | -0.00211
AGTCAAA | -0.00671
TCGAAGA | -0.0196

Sequence | uncleaved DNA left (log2)
TAGGTGC | -0.021
TTTTCAC | -0.0407
GATAAAT | 0.0111
AGCCACG | -0.0903
GTCACCT | -0.0495
ATGAAGC | 0.133
TAGCACC | -0.0117
AGCAGAA | 0.102
GTAGATT | -0.011
CCAGTTT | -0.0519
GTGTATA | -0.115
GACGGGG | 0.0566
AATGCCG | 0.0341
CTGATCG | -0.161
TAAGCTT | 0.0243
ATTGTGC | -0.0289
GCATTAG | -0.0388
AGGGAGT | -0.0439
GGTACAG | 0.136
CGCTGGT | -0.0925
